Results reported in the supplement of paper PMC10441789.
This is one part of the list. Antibody binding of pooled human sera (four to six donors per pool; dilution not stated) to peptides of the Trypanosoma cruzi antigen TSSA on microarrays. Quantile-normalised fluorescence in arbitrary units, mean of duplicate arrays; higher = more binding. No active / inactive call. The uninfected pools are read here as the healthy donors of the same country. The strongest signals lie near the top of the scale (about 60,000).

Tests used:
Experiment in all cases: antibody binding signal (normalised fluorescence) (arbitrary fluorescence units); higher = stronger serum antibody binding to peptide
[1] = test system: pooled sera of chronic Chagas disease patients, Argentina
Experimental: (§1)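 Microarray of 15-residue peptides over residues 30-55 of Trypanosoma cruzi TSSAII, each with 1 to 10 substitutions at naturally variable positions, probed with one serum pool per country.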

[2] = test system: pooled sera of chronic Chagas disease patients, Bolivia
Experimental: as §1

[3] = test system: pooled sera of chronic Chagas disease patients, Brazil
Experimental: as §1

[4] = test system: pooled sera of chronic Chagas disease patients, Colombia
Experimental: as §1

[5] = test system: pooled sera of chronic Chagas disease patients, Mexico
Experimental: as §1

[6] = test system: pooled sera of chronic Chagas disease patients, USA
Experimental: as §1

[7] = test system: pooled sera of uninfected people, Argentina
Experimental: as §1

[8] = test system: pooled sera of uninfected people, Bolivia
Experimental: as §1

[9] = test system: pooled sera of uninfected people, Brazil
Experimental: as §1

[10] = test system: pooled sera of uninfected people, Mexico
Experimental: as §1

[11] = test system: pooled sera of uninfected people, USA
Experimental: as §1

Sequence	antibody binding signal [1]	antibody binding signal [2]	antibody binding signal [3]	antibody binding signal [4]	antibody binding signal [5]	antibody binding signal [6]	antibody binding signal [7]	antibody binding signal [8]	antibody binding signal [9]	antibody binding signal [10]	antibody binding signal [11]
KENKPAAGEAPSQSG	474	8400	30000	302	504	15800	179	289	127	155	111
GTENKPAAGGAPSQS	46000	1570	6480	1220	1570	1010	621	1420	425	328	210
GTENKAATGGAPSQS	35900	1780	4320	1360	2360	3810	315	500	196	170	198
SGKENKPAAGGTPSP	4500	783	18700	4870	4830	18000	10100	4040	617	561	171
STPPSGKENKTAAGG	29500	3530	13600	719	4850	4540	2640	1180	196	334	357
DKKPAAGGAPSPPGA	502	266	630	4970	404	1310	272	232	463	120	220
NKTATGGTPSQPGAS	590	597	2100	2130	428	777	1150	1090	415	1670	1110
ENKPAAGEAPSPSGA	2140	3480	28600	392	318	17700	203	305	187	105	180
GTDKKTATGGTPSPS	495	450	635	5110	555	1740	265	210	239	110	133
TDKKTAAGGAPSQSG	1140	378	223	6120	495	484	151	132	159	196	130
DNKAAAGGAPSPSGA	511	347	680	1800	420	745	444	392	290	693	290
KTATGEAPSPPGASS	11900	29700	12900	288	790	15700	311	148	268	117	182
GKDKKPAAGEAPSPS	740	223	3110	1180	1380	10400	135	80.8	113	73.7	81.3
SGTEKKTATGEAPSP	10600	27500	10700	628	348	18100	183	290	290	131	130
ENKAAAGETPSQPGA	1770	4750	35700	219	158	3390	112	715	165	270	147
EKKTATGETPSPSGA	817	406	688	377	466	7010	458	517	157	229	1090
GKDKKAATGEAPSQS	12800	5260	18000	1670	1480	18300	217	137	290	81.4	384
DNKPATGGAPSQPGA	716	14200	31400	357	399	2560	333	973	560	509	274
KKPATGGAPSQSGAS	530	443	311	371	444	553	347	552	95	133	250
GKENKTATGETPSPS	15800	3330	17700	20500	23100	22700	577	268	146	465	2510
PSGKEKKAATGGTPS	5660	739	5160	8240	9260	5950	307	147	156	95.1	132
TENKAATGGTPSPPG	33900	1100	338	408	428	232	160	126	372	154	183
PPSGKENKPAAGEAP	9630	29500	9570	966	2360	19600	3630	3040	301	310	643
GTDKKTAAGETPSPS	205	245	326	1510	439	2950	144	364	152	514	2040
STPPSGTDKKPATGE	41400	44700	45100	10600	50200	19900	1110	641	470	4500	309
GTDNKTAAGEAPSPS	194	490	28100	222	252	7680	186	617	1410	113	130
GKENKAATGGTPSQP	4690	2180	10800	8950	7360	14300	508	108	184	828	160
